# Experimental data: publication PMC4336329 (PLoS ONE, 2015)
# Screen size: about 310,000 compounds; about 14,000 (4.5%) showed an effect of 50% or more. The effect is printed as a negative number. This is one part of the list.
# Biological target: human ether-à-go-go-related gene (hERG) potassium channel (human, UniProt Q12809)
# Assay: primary screen, population patch clamp on CHO cells stably expressing hERG
# 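Note: peak tail current of the secondary pulse compared with the same well before compound.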
# Sequence of human ether-à-go-go-related gene (hERG) potassium channel (Q12809 whole entry, looked up): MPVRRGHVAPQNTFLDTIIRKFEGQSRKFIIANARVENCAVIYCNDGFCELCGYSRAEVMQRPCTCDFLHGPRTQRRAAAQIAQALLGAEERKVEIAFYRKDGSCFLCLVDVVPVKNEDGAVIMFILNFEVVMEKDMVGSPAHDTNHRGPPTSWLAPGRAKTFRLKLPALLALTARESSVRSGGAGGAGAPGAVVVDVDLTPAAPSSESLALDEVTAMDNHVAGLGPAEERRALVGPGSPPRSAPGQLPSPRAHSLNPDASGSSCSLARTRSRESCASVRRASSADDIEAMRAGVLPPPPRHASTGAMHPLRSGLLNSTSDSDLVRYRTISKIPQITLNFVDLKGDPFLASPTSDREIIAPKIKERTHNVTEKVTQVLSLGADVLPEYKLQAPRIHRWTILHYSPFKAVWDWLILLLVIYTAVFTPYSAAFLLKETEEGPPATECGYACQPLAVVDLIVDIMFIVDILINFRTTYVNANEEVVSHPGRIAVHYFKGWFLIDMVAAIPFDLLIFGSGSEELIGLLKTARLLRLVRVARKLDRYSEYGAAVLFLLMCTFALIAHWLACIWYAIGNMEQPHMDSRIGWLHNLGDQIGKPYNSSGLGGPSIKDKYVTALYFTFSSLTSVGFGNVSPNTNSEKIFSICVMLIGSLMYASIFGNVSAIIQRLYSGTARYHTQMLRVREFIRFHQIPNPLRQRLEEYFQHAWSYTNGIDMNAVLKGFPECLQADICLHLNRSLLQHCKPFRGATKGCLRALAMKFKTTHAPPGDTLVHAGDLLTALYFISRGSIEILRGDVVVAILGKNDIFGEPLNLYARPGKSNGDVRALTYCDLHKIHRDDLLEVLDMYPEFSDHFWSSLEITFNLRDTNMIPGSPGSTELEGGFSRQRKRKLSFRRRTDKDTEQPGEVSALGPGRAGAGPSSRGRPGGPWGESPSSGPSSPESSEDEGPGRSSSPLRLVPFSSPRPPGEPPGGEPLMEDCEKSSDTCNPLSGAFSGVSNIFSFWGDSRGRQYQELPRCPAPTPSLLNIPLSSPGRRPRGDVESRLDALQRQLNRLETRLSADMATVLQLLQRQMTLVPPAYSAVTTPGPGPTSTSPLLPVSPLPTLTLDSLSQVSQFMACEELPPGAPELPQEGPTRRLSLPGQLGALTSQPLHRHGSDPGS
row,Compound,"hERG current change (%, negative = inhibition) at 10uM"
1,CCOC(=O)c1c(C)[nH]c(C)c1C=O,11.7%
2,C/C(=N\NC(=O)c1ccncc1)c1cc2ccccc2o1,-20.5%
3,CCN(CC)C(=S)NC(=O)c1cc(OC)c(OC)c(OC)c1,17.9%
4,O=[N+]([O-])c1cccc(/C=C/c2ccc3cccc(O)c3n2)c1,8.32%
5,CCN(CC)CCN(Cc1cc2ccc(C)cc2[nH]c1=O)C(=S)Nc1ccccc1C(=O)OC,-64.2%
6,Fc1ccc(N/N=C/C=C/c2ccccc2)c(F)c1,0.663%
7,CCCCn1c(SCC(=O)NCCc2ccc(OC)c(OC)c2)nc2c1c(=O)n(C)c(=O)n2C,-4.03%
8,COc1ccc(NC2CCCN(C(=O)c3ccc(C)c(N4CCNC4=O)c3)C2)cc1 (stereo not shown),15.4%
9,CC(C)NC(=O)CSc1ccccc1C(=O)NNC(=O)Cn1ccc(C(F)(F)F)n1,-1.92%
10,COc1cc(NC(=O)CCC2CCCC2)cc(-n2cnnn2)c1,1.96%
11,CCc1c(C(=O)NCCc2cccc(C)c2)[nH]c(C)c1C(C)=O,12.2%
12,CNC(=S)N1N=C(c2ccc(C)cc2)CC1c1ccc(Br)cc1 (stereo not shown),-14.2%
13,COC(=O)c1nc(NC(=O)c2ccccc2Cl)n[nH]1,0.4%
14,C=C[C@@H]1c2c(F)cccc2N(S(=O)(=O)c2ccc(C)cc2)[C@H](c2ccc(OC(C)=O)cc2)C1(C#N)C#N,17%
15,CCOCCCNC(=O)C1(O)c2ccccc2NC(=O)N1c1ccc(Cl)c(Cl)c1 (stereo not shown),-1.45%
16,O=C(/C=C/c1cccs1)NC(=S)NNC(=O)Cc1cccs1,24.6%
17,CCn1c(=S)[nH]c2sc3c(c2c1=O)CCCC3,26.7%
18,CCNC(=O)COc1ccc(C=O)cc1OC,10.5%
19,Cc1ccc(-c2nc3ccccc3s2)cc1S(=O)(=O)N1CCCC1,-4.46%
20,CC(OC(=O)c1ccc(Cl)c(S(=O)(=O)N2CCOCC2)c1)C(=O)NC1CCCCC1C (stereo not shown),-35.9%
21,CCn1cc(CNC(=O)c2cc([N+](=O)[O-])c(C)c([N+](=O)[O-])c2)cn1,5.28%
22,CCC(C(=O)OCC(=O)Nc1cc(Cl)ccc1Cl)c1ccccc1 (stereo not shown),27.5%
23,Cc1ccc(N2CCN(S(=O)(=O)N3CCCCCC3)CC2)cc1Cl,4.91%
24,CC1COC2C(O1)N(S(C)(=O)=O)CCN2S(C)(=O)=O (stereo not shown),10.4%
25,Cc1ccc(CN2CC(C(=O)Nc3nnc(SCc4c(Cl)cccc4Cl)s3)CC2=O)cc1 (stereo not shown),14.1%
26,CCCS(=O)(=O)N1CCC(C(=O)NCCCOC(C)C)CC1,11.1%
27,CCOC(=O)C1=C(C)N(CCCCCC(=O)O)C(=O)NC1c1ccc(Cl)cc1 (stereo not shown),7.91%
28,CCOC(=O)C1=C(COC(=O)CCOc2ccc(C)cc2)NC(=O)NC1C (stereo not shown),-6.59%

row,Compound,"hERG current change (%, negative = inhibition) at 10uM"
1,COCCNC(=O)Cc1c(C)c2c(cc(C)c3c(C(C)(C)C)coc32)oc1=O,-5.58%
2,COc1ccc(/C=N/NC(=S)NCCc2ccccc2)cc1,17.4%
3,CN(Cc1ccccc1)S(=O)(=O)c1cccc(C(=O)O)c1,2.9%
4,Cc1ccc(-n2[nH]c(C)c(/C=N/NC(=O)c3ccc([N+](=O)[O-])cc3)c2=O)c(C)c1,9.6%
5,CC(C)n1nnnc1SCC(=O)NCc1ccco1,0.635%
6,O=C1CSC(c2ccccc2[N+](=O)[O-])N1CCc1ccccc1 (stereo not shown),-41%
7,COCCn1c(-c2ccc3ccccc3c2)nc2c1c(=O)[nH]c(=O)n2CC(C)C,-19.3%
8,CN(c1ccc(OCC(=O)N2CCOCC2)cc1)S(=O)(=O)c1ccc(F)cc1,-9.15%
9,Cc1cccc(N2CCN(C(=O)CCS(=O)(=O)c3ccc4c(c3)oc(=O)n4C)CC2)c1C,-51.2%
10,CC(C)(O)C#Cc1ccc(CN2CCC(n3nccc3NC(=O)C3CC3)CC2)cc1,-19%
11,Cc1ccc(Cn2c(SCc3cccnc3)nc3c2c(=O)n(C)c(=O)n3C)cc1,-0.713%
12,Clc1ccc(SCc2cc(N3CCOCC3)nc(-c3ccccn3)n2)cc1,-43.5%
13,CCCCCCCCC(=O)NC(NC(=S)N1CCOCC1)C(Cl)(Cl)Cl (stereo not shown),10.2%
14,CC(C)=CC(=O)N1CCCC(N2CCN(c3ccc(F)cc3)CC2)C1 (stereo not shown),-0.816%
15,Cn1c(COc2ccc([N+](=O)[O-])cc2)nnc1SCC(=O)NCC1CCCO1 (stereo not shown),-35.4%
16,O=C(c1cc(F)ccc1F)C1CCCN(C(=O)CCc2cnccn2)C1 (stereo not shown),5.06%
17,CCCNC(=O)c1onc(CSc2ccc(F)c(F)c2)c1C(=O)NCCC,-18.3%
18,CCOC(=O)c1cc(NC(=O)C2C3CCC(O3)C2C(=O)O)cc(C(=O)OCC)c1 (stereo not shown),-5.05%
19,Cc1cc(C)c(NC(=O)CSc2ccc3nnc(CCNC(=O)c4ccccc4)n3n2)c(C)c1,-15.4%
20,O=C(NNC(=O)c1ccccc1OCc1ccccc1)c1ccccc1F,-4.28%
21,C=CCNC(=O)/C(C#N)=C/c1c(C)nn(-c2ccc(Cl)cc2)c1Cl,3.71%
22,COc1cc(F)ccc1S(=O)(=O)N1CCN(Cc2ccccc2)CC1,-1.08%
23,CC(C)(C)OC(=O)N[C@H](C(=O)OC(C)(C)C)c1ccc2c(c1)OCO2,-4.77%
24,c1ccc2oc(-c3[nH]ncc3CN3CCSCC3)cc2c1,-5.92%
25,CC1CN(CCCCSc2ccccc2)CC(C)O1.Cl (stereo not shown),-8.71%
26,Cc1ccc(CN2CC(=O)N3[C@H]4c5cc(C)ccc5OC[C@@H]4[C@H](c4ccccc4)[C@]3(C)C2=O)cc1,12.5%
27,CCSc1nc(-c2ccccc2)nc(C(Cl)Cl)n1,-0.375%
